Test results from patent US20250214977A1, “STAT6 INHIBITORS AND USES THEREOF” (Kymera Therapeutics, Inc., priority 2024, published 2025).

These compounds were tested against T1, biotinylated truncated STAT6 (123-632)-avi (Homo sapiens, UniProt P42226) (assay: Homogenous Time-Resolved Fluorescence (HTRF) binding assay). Settings: 0.15 nM biotinylated truncated STAT6 (123-632)-avi, 20 nM fluorescein-labeled probe, 30 minutes at room temperature.
T1 sequence (P42226 123-632 limits assumed): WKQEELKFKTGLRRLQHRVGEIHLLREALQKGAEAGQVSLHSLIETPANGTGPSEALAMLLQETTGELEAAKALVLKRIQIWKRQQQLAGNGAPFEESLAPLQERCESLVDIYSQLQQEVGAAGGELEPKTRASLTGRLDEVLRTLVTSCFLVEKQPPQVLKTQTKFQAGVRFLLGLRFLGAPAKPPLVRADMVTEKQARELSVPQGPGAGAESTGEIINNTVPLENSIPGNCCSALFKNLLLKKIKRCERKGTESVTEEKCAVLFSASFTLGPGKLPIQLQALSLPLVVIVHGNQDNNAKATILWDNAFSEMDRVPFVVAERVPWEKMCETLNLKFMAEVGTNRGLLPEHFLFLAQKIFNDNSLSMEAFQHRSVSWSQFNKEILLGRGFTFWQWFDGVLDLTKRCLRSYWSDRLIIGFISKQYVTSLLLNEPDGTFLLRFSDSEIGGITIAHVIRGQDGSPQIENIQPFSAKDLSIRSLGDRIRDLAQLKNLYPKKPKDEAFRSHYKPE

| Structure (SMILES) | IC50 [µM] |
| --- | --- |
| COc1cc(F)cnc1N1CCN(C(=O)c2cc3c(-c4cccc5c4CC[C@H]5O)cc(C4=CCCN(C(=O)CCn5ccnn5)C4)c(F)c3[nH]2)CC1 [Example I-658] | < 0.1 |
| COc1cc(F)cnc1N1CCN(C(=O)c2cc3c(-c4cc(O)cc5ccccc45)cc(C4=CCCN(C(=O)CCn5ccnn5)C4)c(F)c3[nH]2)CC1 [Example I-659] | < 0.1 |
| COCOc1ccc(F)cc1-c1cc(C2=CCCN(C(=O)CCn3ccnn3)C2)c(F)c2[nH]c(C(=O)N3CCN(c4ncc(F)cc4OC)CC3)cc12 [Example I-660] | < 0.1 |
| CCOc1ccc(-c2cc(C3=CCCN(C(=O)CCn4ccnn4)C3)c(F)c3[nH]c(C(=O)N4CCN(c5ncc(F)cc5OC)CC4)cc23)c(OC)c1 [Example I-661] | < 0.1 |
| CCc1ccccc1-c1cc(C2=CCCN(C(=O)CCn3cccn3)C2)c(F)c2[nH]c(C(=O)N3CCN(c4ncc(F)cc4OC)CC3)cc12 [Example I-662] | < 0.1 |
| COc1cnccc1-c1cc(C2=CCCN(C(=O)CCn3cccn3)C2)c(F)c2[nH]c(C(=O)N3CCN(c4ncc(F)cc4OC)CC3)cc12 [Example I-663] | < 0.1 |
| COc1ccncc1-c1cc(C2=CCCN(C(=O)CCn3cccn3)C2)c(F)c2[nH]c(C(=O)N3CCN(c4ncc(F)cc4OC)CC3)cc12 [Example I-664] | < 0.1 |
| CCc1ccccc1-c1cc(C2=CCCN(C(=O)CCn3ccnn3)C2)c(F)c2[nH]c(C(=O)N3CCN(c4ncc(F)cc4OC)CC3)cc12 [Example I-665] | < 0.1 |
| COc1cnccc1-c1cc(C2=CCCN(C(=O)CCn3ccnn3)C2)c(F)c2[nH]c(C(=O)N3CCN(c4ncc(F)cc4OC)CC3)cc12 [Example I-666] | > 100 |
| COc1cc(C)ncc1-c1cc(C2=CCCN(C(=O)CCn3ccnn3)C2)c(F)c2[nH]c(C(=O)N3CCN(c4ncc(F)cc4OC)CC3)cc12 [Example I-667] | > 100 |
| COc1cc(F)cnc1N1CCN(C(=O)c2cc3c(-c4cnccc4C(C)C)cc(C4=CCCN(C(=O)CCn5ccnn5)C4)c(F)c3[nH]2)CC1 [Example I-668] | > 100 |
| COc1cc(F)cnc1N1CCN(C(=O)c2cc3c(-c4cnccc4C(C)C)cc(C4=CCCN(C(=O)CCn5cccn5)C4)c(F)c3[nH]2)CC1 [Example I-669] | < 0.1 |
| COCOc1cc(F)ccc1-c1cc(C2=CCCN(C(=O)CCn3ccnn3)C2)c(F)c2[nH]c(C(=O)N3CCN(c4ncc(F)cc4OC)CC3)cc12 [Example I-670] | < 0.1 |
| COc1cc(F)cnc1N1CCN(C(=O)c2cc3c(-c4cnn(-c5ccccc5)c4)cc(C4=CCCN(C(=O)CCn5ccnn5)C4)c(F)c3[nH]2)CC1 [Example I-671] | 0.1 to 1 |
| COc1cc(F)cnc1N1CCN(C(=O)c2cc3c(-c4cccc(C)c4)cc(C4=CCCN(C(=O)CCn5ccnn5)C4)c(F)c3[nH]2)CC1 [Example I-673] | < 0.1 |
| COc1cc(F)cnc1N1CCN(C(=O)c2cc3c(-c4cccc(C5CC5)c4)cc(C4=CCCN(C(=O)CCn5ccnn5)C4)c(F)c3[nH]2)CC1 [Example I-674] | 0.1 to 1 |
| C=C(C)c1cc(C2=CCCN(C(=O)CCn3ccnn3)C2)c(F)c2[nH]c(C(=O)N3CCN(c4ncc(F)cc4OC)CC3)cc12 [Example I-675] | < 0.1 |
| COc1cc(F)cnc1N1CCN(C(=O)c2cc3c(-c4ccc(F)c(C)c4)cc(C4=CCCN(C(=O)CCn5ccnn5)C4)c(F)c3[nH]2)CC1 [Example I-676] | 0.1 to 1 |
| CCC/C=C/c1cc(C2=CCCN(C(=O)CCn3ccnn3)C2)c(F)c2[nH]c(C(=O)N3CCN(c4ncc(F)cc4OC)CC3)cc12 [Example I-677] | < 0.1 |
| COc1cc(F)cnc1N1CCN(C(=O)c2cc3c(-c4cccc5c4OCCCO5)cc(C4=CCCN(C(=O)CCn5ccnn5)C4)c(F)c3[nH]2)CC1 [Example I-678] | < 0.1 |
| CCSc1ccccc1-c1cc(C2=CCCN(C(=O)CCn3ccnn3)C2)c(F)c2[nH]c(C(=O)N3CCN(c4ncc(F)cc4OC)CC3)cc12 [Example I-679] | < 0.1 |
| COc1cc(F)cnc1N1CCN(C(=O)c2cc3c(-c4ccnc(N5CCOCC5)c4)cc(C4=CCCN(C(=O)CCn5ccnn5)C4)c(F)c3[nH]2)CC1 [Example I-680] | < 0.1 |
| COc1cc(F)cnc1N1CCN(C(=O)c2cc3c(-c4cccc(C(C)(C)C#N)c4)cc(C4=CCCN(C(=O)CCn5ccnn5)C4)c(F)c3[nH]2)CC1 [Example I-682] | < 0.1 |
| CCc1ccncc1-c1cc(C2=CCCN(C(=O)CCn3cccn3)C2)c(F)c2[nH]c(C(=O)N3CCN(c4ncc(OC)cc4OC)CC3)cc12 [Example I-683] | < 0.1 |
| CCc1cnccc1-c1cc(C2=CCCN(C(=O)CCn3cccn3)C2)c(F)c2[nH]c(C(=O)N3CCN(c4ncc(OC)cc4OC)CC3)cc12 [Example I-684] | < 0.1 |
| CCc1ccncc1-c1cc(C2=CCCN(C(=O)CCn3cccn3)C2)c(F)c2[nH]c(C(=O)N3CCN(c4ncc(F)cc4OC)CC3)cc12 [Example I-686] | < 0.1 |

| Structure (SMILES) | IC50 [µM] |
| --- | --- |
| COc1ccccc1-c1cc(C2=CCCN(C(=O)CCn3cccn3)C2)c(F)c2[nH]c(C(=O)N3CCN(c4ncc(F)cc4OC)CC3)cc12 [Example I-687] | < 0.1 |
| CCc1cnccc1-c1cc(C2=CCCN(C(=O)CCn3cccn3)C2)c(F)c2[nH]c(C(=O)N3CCN(c4ncc(F)cc4OC)CC3)cc12 [Example I-688] | < 0.1 |
| CCc1cnccc1-c1cc(C2=CCCN(C(=O)CCn3ccnn3)C2)c(F)c2[nH]c(C(=O)N3CCN(c4ncc(F)cc4OC)CC3)cc12 [Example I-689] | < 0.1 |
| COc1cccnc1N1CCN(C(=O)c2cc3c(-c4cccc5c4OC(F)(F)O5)cc(C4=CCCN(C(=O)CCn5ccnn5)C4)c(F)c3[nH]2)CC1 [Example I-690] | < 0.1 |
| COc1cc2c(-c3cc(C4=CCCN(C(=O)CCn5ccnn5)C4)c(F)c4[nH]c(C(=O)N5CCN(c6ncc(F)cc6OC)CC5)cc34)ccnc2cc1F [Example I-691] | < 0.1 |
| CCc1nccn1-c1cc(C2=CCCN(C(=O)CCn3ccnn3)C2)c(F)c2[nH]c(C(=O)N3CCN(c4ncccc4OC)CC3)cc12 [Example I-692] | > 100 |
| CCCc1cc(C2=CCCN(C(=O)CCn3ccnn3)C2)c(F)c2[nH]c(C(=O)N3CCN(c4ncc(F)cc4OC)CC3)cc12 [Example I-693] | > 100 |
| COc1cc(F)cnc1N1CCN(C(=O)c2cc3c(C4CC4)cc(C4=CCCN(C(=O)CCn5ccnn5)C4)c(F)c3[nH]2)CC1 [Example I-694] | > 100 |
| CCCCCCc1cc(C2=CCCN(C(=O)CCn3ccnn3)C2)c(F)c2[nH]c(C(=O)N3CCN(c4ncc(F)cc4OC)CC3)cc12 [Example I-695] | > 100 |
| COc1ccncc1-c1cc(C2=CCCN(C(C)=O)C2)c(F)c2[nH]c(C(=O)N3CCN(c4ncc(F)cc4OC)CC3)cc12 [Example I-696] | > 100 |
| COc1cnccc1-c1cc(C2=CCCN(C(C)=O)C2)c(F)c2[nH]c(C(=O)N3CCN(c4ncc(F)cc4OC)CC3)cc12 [Example I-697] | > 100 |
| COc1cccnc1N1CCN(C(=O)c2cc3c(C4CCC5(CCNCC5)CC4)cc(C4=CCCN(C(=O)CCn5ccnn5)C4)c(F)c3[nH]2)CC1 [Example I-698] | 10 to 100 |
| CCc1ccncc1-c1cc(C2=CCCN(C(C)=O)C2)c(F)c2[nH]c(C(=O)N3CCN(c4cc(F)cnc4OC)CC3)cc12 [Example I-699] | 10 to 100 |
| CCc1ccccc1-c1cc(C2=CCCN(C(=O)CCn3ccnn3)C2)c(F)c2[nH]c(C(=O)N3Cc4cnn(C)c4C3)cc12 [Example I-700] | 10 to 100 |
| COc1ccncc1-c1cc(C2=CCCN(C(C)=O)C2)c(F)c2[nH]c(C(=O)N3Cc4cnn(C)c4C3)cc12 [Example I-701] | 10 to 100 |
| CCc1ccncc1-c1cc(C2=CCCN(C(C)=O)C2)c(F)c2[nH]c(C(=O)N3Cc4cnn(C)c4C3)cc12 [Example I-702] | 10 to 100 |
| COc1cc(F)cnc1N1CCN(C(=O)c2cc3c(-c4ccncc4C(C)C)cc(C4=CCCN(C(=O)CCn5ccnn5)C4)c(F)c3[nH]2)CC1 [Example I-703] | 10 to 100 |
| CCc1ccncc1-c1cc(C2=CCCN(C(=O)CCn3ccnn3)C2)c(F)c2[nH]c(C(=O)N3Cc4cnn(C)c4C3)cc12 [Example I-704] | 10 to 100 |
| CCc1cnccc1-c1cc(C2=CCCN(C(C)=O)C2)c(F)c2[nH]c(C(=O)N3Cc4cnn(C)c4C3)cc12 [Example I-705] | 10 to 100 |
| CCc1cnccc1-c1cc(C2=CCCN(C(C)=O)C2)c(F)c2[nH]c(C(=O)N3CCN(c4ncc(F)cc4OC)CC3)cc12 [Example I-706] | 10 to 100 |
| CCc1cc(C)ncc1-c1cc(C2=CCCN(C(=O)CCn3ccnn3)C2)c(F)c2[nH]c(C(=O)N3CCN(c4ncc(F)cc4OC)CC3)cc12 [Example I-707] | 10 to 100 |
| CCc1ccncc1-c1cc(C2=CCCN(C(=O)OC)C2)c(F)c2[nH]c(C(=O)N3CCN(c4ncc(F)cc4OC)CC3)cc12 [Example I-708] | 10 to 100 |
| CCn1ncc2c1CN(C(=O)c1cc3c(-c4ccncc4OC)cc(C4=CCCN(C(C)=O)C4)c(F)c3[nH]1)C2 [Example I-715] | 10 to 100 |
| COc1ncccc1-c1cc(C(=O)N2Cc3cnn(C)c3C2)cc2cc(C3=CCCN(C(=O)CCn4ccnn4)C3)n(CC3CC3)c12 [Example I-717] | 10 to 100 |
| COc1cccnc1N1CCN(C(=O)c2cc3c(-c4cnc(C)c(C)c4OC)cc(C4=CCCN(C(=O)CCn5ccnn5)C4)c(F)c3[nH]2)CC1 [Example I-724] | < 0.1 |
| COc1cc(F)cnc1N1CCN(C(=O)c2cc3c(C4CCN(C)CC4)cc(C4=CCCN(C(=O)CCn5ccnn5)C4)c(F)c3[nH]2)CC1 [Example I-725] | < 0.1 |
